The results in this text go back to PubChem BioAssay AID360 (National Center for Advancing Translational Sciences (NCATS), 2006).

Among all 48,000 compounds or so, about 550 (1.1%) were called active. Another 4% or so got no clear call; they are omitted. Cut-off read from the data, not from the text of the source: active = potency below about 15 µM; inconclusive = mostly about 16 µM to 33 µM; inactive = weaker than that. The list shows a part of the results. Bounds are passed on as bounds.
Potency is the fitted concentration of half-maximal effect.

Sequence of UniProt P04062 (P04062 whole entry, looked up): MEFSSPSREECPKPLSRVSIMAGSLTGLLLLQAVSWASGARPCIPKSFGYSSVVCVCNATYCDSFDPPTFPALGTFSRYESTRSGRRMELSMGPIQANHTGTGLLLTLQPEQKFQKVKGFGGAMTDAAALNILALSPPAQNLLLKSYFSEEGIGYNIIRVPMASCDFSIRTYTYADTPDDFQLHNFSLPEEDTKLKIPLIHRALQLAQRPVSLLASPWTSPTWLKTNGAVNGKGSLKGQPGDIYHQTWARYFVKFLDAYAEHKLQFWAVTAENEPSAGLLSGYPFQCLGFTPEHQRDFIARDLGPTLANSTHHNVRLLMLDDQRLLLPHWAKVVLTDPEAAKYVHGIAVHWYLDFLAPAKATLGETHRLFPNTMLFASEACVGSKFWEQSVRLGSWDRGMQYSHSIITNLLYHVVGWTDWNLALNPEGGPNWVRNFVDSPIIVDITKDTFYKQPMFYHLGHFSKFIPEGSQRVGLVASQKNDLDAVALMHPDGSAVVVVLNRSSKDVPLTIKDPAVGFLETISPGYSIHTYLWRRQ

The target in this assay is Lysosomal acid glucosylceramidase (Homo sapiens) (UniProt P04062). Briefly: Glucocerebrosidase.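 Note: the screen sought inhibitors.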 The settings on record: purified enzyme, resorufin glucoside fluorescence (screen aimed at inhibitors), 20 min; series mostly up to 77 µM. Summed up:
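Wild-type enzyme at 0.2 nM final in 50mM citric acid/KH2PO4, 10mM sodium taurocholate, 0.01% tween-20, pH 5.9, with resorufin beta-D-glucopyranoside at 30 uM final. Compounds titrated, 20 min at RT, red fluorescence read; AC50 from titration.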
Consider `O=C(O)C1CC(=O)N(Cc2ccc(F)cc2)C1` (centres undefined), for which the Potency is inactive: > 76.9 µM. In the case of `COc1ccc(C2C(=O)c3ccccc3C2=O)c(OC)c1` it was inactive: > 76.9 µM. For `CN(C)C(=O)N1CCC(C(=O)NC2CCCCCCC2)CC1` the value was inactive: > 76.9 µM; for `CCCn1nnc(NC(=O)COc2ccc(C3CCCCC3)cc2)n1`, inactive: > 76.9 µM. In the case of `CCOc1cc(C)nc(N2CCN(C3CCCCC3)CC2)n1` it was inactive: > 76.9 µM. In the case of `CC(=O)c1ccc(-n2nncc2C)cc1`, the Potency was inactive: > 76.9 µM.

In the case of `CCn1cc(CNC(=O)C2C3CCC(C3)C2C(=O)O)cn1` (centres undefined), the Potency is inactive: > 76.9 µM. In the case of `Nc1ccn(-c2ccc(Cl)cc2)c(=O)c1` it was inactive: > 76.9 µM; in that of `Cc1ccc(S(=O)(=O)NCCCNS(C)(=O)=O)cc1`, inactive: > 76.9 µM; in that of `CCOC(=O)c1c(C)c(C(=O)NCc2ccc3c(c2)OCO3)c(C)n1CC`, inactive: > 76.9 µM. On to `CCc1c(C)c2c(C)[nH]nc2oc1=O`, for which the Potency was inactive: > 76.9 µM. Take `COc1ccc(CNc2n[nH]c(NCc3ccc(OC)c(OC)c3)n2)cc1OC`: the Potency was inactive: > 76.9 µM. In the case of `Cc1ccc(-n2nnnc2SCC(=O)c2cc(C)n(CC3CCCO3)c2C)cc1` (centres undefined) it was inactive: > 76.9 µM; in that of `COc1ccc(NS(=O)(=O)c2ccc(Br)s2)cc1OC`, inactive: > 76.9 µM. For `COc1ccc2cnn(Cc3ccccc3)c(=O)c2c1OC`, the Potency is inactive: > 76.9 µM. In the case of `Cc1cc(C)cc(C(=O)/C=C2\NC(=O)CS2)c1` it was inactive: > 76.9 µM. Consider `CCn1c(COc2ccccc2C)nnc1SCC(=O)Nc1cc(C)on1`, for which the Potency was inactive: > 76.9 µM.

For `O=C(c1c(O)c2ccccc2oc1=O)C1CCC1`, the Potency was inactive: > 76.9 µM. For `O=C(COC(=O)CCC1CCCC1)Nc1ccc(Cl)cn1` the value was inactive: > 76.9 µM; for `O=C(CN1CCN(c2ccc(Cl)cc2)CC1)c1ccc2c(c1)OCO2`, inactive: > 76.9 µM; for `COc1ccc(OC)c(S(=O)(=O)Nc2c(F)cccc2F)c1`, inactive: > 76.9 µM.

For the compound `COc1ccc2c(c1)C=CC1(O2)N(CCO)c2ccccc2C1(C)C` (centres undefined), the Potency is inactive: > 76.9 µM.

Consider `CC(C)CCn1nnnc1C(c1ccccc1)N1CCC(C(N)=O)CC1` (centres undefined), for which the Potency is inactive: > 76.9 µM. In the case of `Cc1ccc2cc(CN(Cc3ccco3)C(=O)NCc3ccccc3)c(=O)[nH]c2c1C` it was inactive: > 76.9 µM; in that of `COc1cccc(NC(=O)Cn2c(-c3cncs3)nc3ccccc32)c1`, inactive: > 76.9 µM; in that of `CCc1cc2c(CN3CCN(C)CC3)cc(=O)oc2cc1O`, “inactive”. For `COc1ccc(NC(=O)CCN2CCCC(C)C2)cc1` (centres undefined) the value was inactive: > 76.9 µM; for `COCCN(C(=O)c1cccc(OC)c1)c1nnc(-c2ccncc2)s1`, inactive: > 76.9 µM.

With `O=P(O)(O)C(O)C(F)(F)C(F)(F)C(F)(F)C(F)F` (centres undefined), the Potency is inactive: > 76.9 µM. In the case of `COc1ccc(C(=O)C(CN2CCOCC2)c2ccccc2)cc1F` (centres undefined) it was inactive: > 76.9 µM; in that of `CN(C)C(=O)N1CCC(C(=O)NCc2cccs2)CC1`, inactive: > 76.9 µM. `COCCNC(=O)CSc1nc2c(n1-c1ccccc1)CCCC2`: the Potency is inactive: > 76.9 µM. For `Cc1nnc(Oc2ccccc2F)c2ccccc12` the value was inactive: > 76.9 µM; for `O=C(c1cccs1)c1coc2ccc(O)c(CN3CCOCC3)c12`, inactive: > 76.9 µM; for `O=C(CCS(=O)(=O)c1cccc2nonc12)NC1CCCCCC1`, inactive: > 76.9 µM. For `S=c1[nH]nc(-c2ccncc2)n1CC1CCCO1` (centres undefined) the value was inactive: > 76.9 µM; for `Cc1ccc(NC(=O)c2ccco2)c(NC(=O)c2cccs2)c1`, inactive: > 76.9 µM. As to `CCCS(=O)(=O)NCc1cn2cccc(C)c2n1`, the Potency is inactive: > 76.9 µM.

Regarding `CC(=C1C(=O)c2ccccc2C1=O)N1CCN(Cc2ccccc2)CC1`, the Potency was inactive: > 76.9 µM. For the compound `O=C(Nc1cccc(F)c1)c1c(F)c(F)c(F)c(F)c1F`, the Potency is inactive: > 76.9 µM. For `C=CCn1c(NCCO)nc2c1c(=O)n(C)c(=O)n2C` the value was inactive: > 76.9 µM; for `CCc1c(C)nc(SC)n(CC#N)c1=O`, inactive: > 76.9 µM; for `O=C(c1cc(-c2ccc3c(c2)OCO3)on1)N1CCOCC1`, inactive: > 76.9 µM. With `c1ccc(-c2n[nH]c(-c3ccccn3)n2)nc1`, the Potency is inactive: > 76.9 µM.

For `O=C1c2ccccc2C(=O)N1CCCCSc1nnc(-c2ccc(OC(F)F)cc2)o1`, the Potency is inactive: > 76.9 µM.

Regarding `Cc1nc(SCC(=O)c2ccccc2)n[nH]1`, the Potency is inactive: > 76.9 µM.

Consider `CCOC(=O)c1ccc(Nc2c(CC)c(C)nc3ncnn23)cc1`, for which the Potency is inactive: > 76.9 µM. In the case of `CCOc1cc(NC(=O)c2ccccn2)c(OCC)cc1NC(=O)CC(C)C` it was inactive: > 76.9 µM. For `CCn1c2ccccc2c2nc3cc(OC)c(OC)cc3nc21` the value was inactive: > 76.9 µM. For `CC1(C)C2CCC13CS(=O)(=O)N[C@@H]3C2` (some centres undefined) the value was inactive: > 76.9 µM. With `Cn1cccc1C(=O)NS(=O)(=O)c1ccccc1Cl`, the Potency is inactive: > 76.9 µM. In the case of `O=C(Nc1cccc(C(F)(F)F)c1)c1cc(-c2cccs2)on1` it was active: 4.85 µM. With `CCN(CC)S(=O)(=O)c1ccc2oc(C(=O)N3CCCCCC3)c(C)c2c1`, the Potency was inactive: > 76.9 µM. On to `CC(C)CC1N=C2c3ccccc3N=C(SCc3cc(=O)n4ccccc4n3)N2C1=O` (centres undefined), for which the Potency was inactive: > 76.9 µM. In the case of `Cn1nc(C(=O)NC2CCCCCC2)ccc1=O` it was inactive: > 76.9 µM; in that of `COc1cc(OC)c(C2N(c3ccccn3)C(=O)C3CCCN32)cc1OC` (centres undefined), inactive: > 76.9 µM. For `CCn1c(=O)c(C(=O)Nc2ccccc2S(N)(=O)=O)c(O)c2ccccc21` the value was inactive: > 76.9 µM; for `CSc1nc(N2CCN(CCO)CC2)c2sc3nc(-c4ccco4)c4c(c3c2n1)CCC4`, inactive: > 76.9 µM; for `CCCNc1ncnc2sc(C)c(C)c12`, inactive: > 76.9 µM. Take `COc1ccc(OC)c(NC(=O)CN2C(=O)C3(OCCCO3)c3ccccc32)c1`: the Potency is inactive: > 76.9 µM. In the case of `c1ccc(Cn2c(SCCN3CCOCC3)nnc2-c2cccnc2)cc1` it was inactive: > 76.9 µM; in that of `NC(CSC12CC3CC(CC(C3)C1)C2)C(=O)O` (centres undefined), inactive: > 76.9 µM. In the case of `COc1cc(C(=O)N(Cc2cc3cc(C)ccc3[nH]c2=O)CC2CCCO2)cc(OC)c1OC` (centres undefined) it was inactive: > 76.9 µM.

Take `CCOC(=O)CCCNC(=O)COC(=O)c1cc(C)cc(C)c1`: the Potency is inactive: > 76.9 µM.

Consider `Cn1c(=O)cc(SCC(=O)N2CCCC2)c2cc(Cl)ccc21`, for which the Potency was inactive: > 76.9 µM. For `COC(=O)c1ccccc1NC(=O)C1CCCN(S(C)(=O)=O)C1` (centres undefined) the value was inactive: > 76.9 µM; for `COc1ccc(C(=O)CN2C(=O)c3ccccc3C2=O)c(OC)c1C`, “inactive”; for `O=C(COC(=O)c1cnccn1)c1ccc2c(c1)CCCC2`, inactive: > 76.9 µM. For the compound `Cc1ccc(C)c(-n2c(CNC(=O)c3ccco3)nnc2SCC(=O)N2CCc3ccccc32)c1`, the Potency was inactive: > 76.9 µM.

For the compound `O=S1(=O)CCN2C(c3ccco3)=CSC2=N1`, the Potency is inactive: > 76.9 µM. Consider `COc1cccc(-c2nnn(CCC(=O)O)n2)c1`, for which the Potency is inactive: > 76.9 µM.

Take `Cc1ccc2nc(-c3cccc(S(=O)(=O)N(C)C)c3)cn2c1`: the Potency was inactive: > 76.9 µM.

For the compound `CC(C)c1c(O)nc(SCC(=O)Nc2ccc3c(c2)CCC3)[nH]c1=O`, the Potency entry was “inactive”. In the case of `COCCn1c(C)cc(C(=O)COC(=O)c2ccc(N3CCCC3=O)cc2)c1C` it was inactive: > 76.9 µM. For `CC1(C)CC(=O)C=C(Nc2ccc(S(N)(=O)=O)cc2)C1` the value was inactive: > 76.9 µM; for `COc1cc(NC(=O)CCN2CCN(c3ccccc3F)CC2)cc(OC)c1`, inactive: > 76.9 µM.

Consider `CC(C)n1c(SCC(N)=O)nc2c1c(=O)[nH]c(=O)n2C`, for which the Potency was inactive: > 76.9 µM.

As to `N#Cc1c(NC(=O)CN2CCCCC2)sc2c1CCC2`, the Potency is inactive: > 76.9 µM. For `COc1ccc(-c2nnc(SCC(=O)NC(=O)NCc3ccco3)o2)cc1` the value was inactive: > 76.9 µM; for `COc1ccc(OC)c(S(=O)(=O)N2CCC(C(=O)NCc3ccccc3OC)CC2)c1`, inactive: > 76.9 µM. For `CCOc1cc(C2C(C(=O)c3ccco3)=C(O)C(=O)N2CCc2ccccc2)ccc1O` (centres undefined) the value was inactive: > 76.9 µM; for `CC(c1ccccc1)N1C(=O)c2ccc(C(=O)NCc3ccco3)cc2C1=O` (centres undefined), inactive: > 76.9 µM. In the case of `CCN=C1SC(CC(=O)NC2CCCCC2)C(=O)N1CC` (centres undefined) it was inactive: > 76.9 µM; in that of `CCCS(=O)(=O)N1CCCC(C(=O)NCCc2ccc(OC)c(OC)c2)C1` (centres undefined), inactive: > 76.9 µM. As to `Cc1ccc(Cl)cc1NC(=O)COC(=O)C1CCCC1`, the Potency was inactive: > 76.9 µM. For `CCn1nc(NC(=O)c2ccco2)c2cc3ccc(C)cc3nc21` the value was inactive: > 76.9 µM; for `CCOC(=O)N1CCC(NC(=O)C(CC(C)C)NC(=O)C2CCCCC2)CC1` (centres undefined), inactive: > 76.9 µM. In the case of `CCOC(=O)C1CCN(C(=O)COc2ccc(Cl)cc2Cl)CC1` it was inactive: > 76.9 µM; in that of `Cc1ccc(C2C(C(=O)c3sc(C)nc3C)=C(O)C(=O)N2CCN(C)C)o1` (centres undefined), inactive: > 76.9 µM; in that of `O=C(NCSC1=NCCS1)c1ccccc1`, inactive: > 76.9 µM. For `Cc1c(NC(=O)c2ccc(N3C(=O)C4C5C=CC(C5)C4C3=O)cc2)c(=O)n(-c2ccccc2)n1C` (centres undefined) the value was inactive: > 76.9 µM.

In the case of `COc1ccc(-c2cc(C(=O)OCC(=O)N(C)C)c3ccccc3n2)cc1`, the Potency was inactive: > 76.9 µM.

Turning to `Cc1ccc(C)c(N2CCN(C(=O)CCCCn3c(=O)[nH]c4ccccc4c3=O)CC2)c1`, the Potency entry was “inactive”. In the case of `c1ccc(-n2nnc3c(N4CCOCC4)ncnc32)cc1` it was inactive: > 76.9 µM.
